From ChEMBL document CHEMBL4888484, “Replenishing the malaria drug discovery pipeline: Screening and hit evaluation of the MMV Hit Generation Library 1 (HGL1) against asexual blood stage Plasmodium falciparum ,using a nano luciferase reporter read-out” (2022)
The campaign covered roughly 4,800 compounds. About 410 (8.5%) showed an effect of 50% or more. This is one part of the list.

Each molecule was assayed on Plasmodium falciparum (assay: Confirmatory screen in NF54 pLDH assay, in single point, at 2uM, 72h). Settings: timepoint 72 hour.
Format: functional, Erythrocyte

Row | SMILES | % Inhibition
1 | Fc1ccc(Nc2nc(OC(C(F)(F)F)C(F)(F)F)nc(N3CCCCCC3)n2)cc1 | 0%
2 | CCn1c(=O)c(N2CCN(C(=O)Nc3ccc(F)cc3F)CC2)nc2ccccc21 | 8%
3 | COc1nc(-c2cccc(C(=O)NCC3CCOCC3)c2)ncc1F | 80%
4 | C=CCN(CC=C)C(=O)COc1cc(C)c(C)nn1 | 8%
5 | COCC(=O)N[C@H]1CO[C@H]2[C@@H]1OC[C@@H]2Nc1nccc(-c2cccc(C#N)c2)n1 | 9%
6 | Cc1ccc(Cl)c2ccc(NC(=O)CCNC(N)=O)nc12 | 10%
7 | CC1(C)Cc2cc(S(=O)(=O)N[C@H]3CCC(=O)NC3(C)C)ccc2O1 | -8%
8 | CC(C)(C)c1nc(Cn2c3c(sc2=O)CCCC3)no1 | 12%
9 | CCCOc1cc2nc(C(F)(F)F)cc(-c3cccs3)c2cc1OCCC | 13%
10 | Cc1nc2ccccc2n1CCC(=O)N1CCN(Cc2ccc3c(c2)OCO3)CC1 | 14%
11 | CCC(C)(C)C(=O)N1CCC[C@@H]1CCc1ncc(C)n1C(C)C | 14%
12 | Cc1ccc(C)c(C(=O)N2C[C@@H]3CN(C(=O)C4CCC4)C[C@]3(C(=O)O)C2)c1 | 8%
13 | CCn1cc(S(=O)(=O)N(C)Cc2nn(CC)cc2Cl)cn1 | 8%
14 | N#Cc1ccc(CNc2ccccc2OCC(F)F)o1 | -18%
15 | N#Cc1c(CN(CCn2cccn2)Cc2cn3ccccc3c2C#N)cn2ccccc12 | -22%
16 | CNc1nc(C)cc(C(=O)Nc2ccc(Cl)cc2NC(C)=O)n1 | 5%
17 | COc1cccc(NC(=O)Cn2c(C)ccc(NS(=O)(=O)c3ccc(C)cc3)c2=O)c1 | 59%
18 | CC(C)NC(=O)[C@H](C)N(C)Cc1nccn1CC(F)(F)F | 8%
19 | O=C(CCc1ccc(Cl)c(C(F)(F)F)c1)N1CC[C@H](N2CCc3ccccc3C2)C1 | 45%
20 | O=C(CNc1cccc(C(F)(F)F)c1)OCC(=O)N1CCNC1=O | 5%
21 | Cc1noc(C)c1CS(=O)(=O)CCC(=O)NC1CCCCC1 | -6%
22 | CCCCC[C@H](C)NC(=O)CCC(=O)Nc1cccnc1 | -17%
23 | Cc1ccc(S(=O)(=O)NCC2(CNS(=O)(=O)c3ccc(C)cc3)CN(S(=O)(=O)c3ccc(C)cc3)C2)cc1 | 6%
24 | CC(C)(CC(=O)O)CC(=O)Nc1ccc(Cc2nnc3ccccn23)cc1 | 12%
25 | O=C(NCCCc1ccccc1)[C@H]1CCCN(c2nc3ccccc3[nH]2)C1 | -4%
26 | COCC1(C(=O)N2CCN(c3cncc4ccccc34)CC2)CCC1 | 7%
27 | COc1cccc(NC(=O)CN2CN(c3ccccc3)C3(CCN(C(=O)C[C@@H](C)CC(C)(C)C)CC3)C2=O)c1 | 3%
